# Measurements taken from PubChem BioAssay AID1346378 (National Center for Advancing Translational Sciences (NCATS), 2018).
# Values joined by “and” are separate entries in the source; they are usually repeats but may differ in a detail not shown here. Identical values can stand only once. The whole screen tested about 420,000 compounds, of which about 540 (0.13%) were called active. Inconclusive results, whose numbers are uncertain, are shown with a selection of clear calls. Rule as the data show it: active = activity change below about -50%; inconclusive = mostly about -30% to -49%; inactive = weaker than that.
# Molecular target: Phosphatidylinositol 4-kinase type 2-alpha (Homo sapiens) (UniProt Q9BTU6)
# Assay: qHTS for small molecular inhibitors of PI4K2A;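 also: -100% = wells without enzyme as full effect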
# Conditions: purified PI4K2A, ADP-Glo luminescence, 1 h; at 76.9 µM; stronger effect = lower value
# Method in brief: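 ADP-Glo luminescence measured ADP generated by PI4K2A enzyme (4 ug/mL before mixing) with 1.2 mM PI substrate (pre-mix) and 300 microM ATP (pre-mix). Tris pH7.5 buffer with MgCl2, Triton X-100; 1 h reaction at ambient temperature.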
# Sequence of UniProt Q9BTU6 (Q9BTU6 whole entry, looked up): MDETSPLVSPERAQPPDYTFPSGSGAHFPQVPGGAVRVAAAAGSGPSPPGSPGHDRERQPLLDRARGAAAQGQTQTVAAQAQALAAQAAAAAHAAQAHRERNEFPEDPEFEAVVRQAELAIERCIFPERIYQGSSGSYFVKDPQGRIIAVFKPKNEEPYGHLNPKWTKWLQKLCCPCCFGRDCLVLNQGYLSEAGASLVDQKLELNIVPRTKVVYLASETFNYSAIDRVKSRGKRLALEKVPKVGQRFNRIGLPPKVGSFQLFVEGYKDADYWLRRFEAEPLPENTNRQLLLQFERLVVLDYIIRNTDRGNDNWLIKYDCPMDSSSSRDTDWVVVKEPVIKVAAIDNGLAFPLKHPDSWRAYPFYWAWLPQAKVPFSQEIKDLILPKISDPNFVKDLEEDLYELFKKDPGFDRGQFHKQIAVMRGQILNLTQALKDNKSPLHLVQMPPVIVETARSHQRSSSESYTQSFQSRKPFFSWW
row,SMILES,"activity change, negative = inhibition"
1,O=C(NC1CCCCC1)Oc1cc2oc(=O)sc2cc1Cl,inconclusive: -30.4%
2,Nc1c(C(=O)NCc2ccco2)c2nc3ccccc3nc2n1CCN1CCOCC1,inconclusive: -32.6%
3,CN(C)c1ccc(/C=C/c2cc[n+](C)c3ccccc23)cc1,inconclusive: -40.2%
4,CCOC(C(=O)OCCC[N+](C)(CC)CC)(c1ccccc1)c1ccccc1,inactive: 1.08%
5,O=C(O)c1ccc(/C=C/c2nc3ccccc3c(=O)n2-c2ccc(Br)cc2)cc1,inactive: 6.42%
6,O=C1NC(=O)C(Nc2ccc(Cl)c(Cl)c2)C(=O)N1,inconclusive: -44.9%
7,CCc1ccc(N2C(=O)NC(=O)/C(=C\C=C\c3ccco3)C2=O)cc1,inconclusive: -41.7%
8,CC(C)n1c(O)c(C2c3cc(Cl)ccc3Oc3[nH]c(=O)n(C(C)C)c(=O)c32)c(=O)[nH]c1=O (stereo not given),inconclusive: -31.6%
9,COCCCn1c(N)c(C(=O)Nc2ccccc2)c2nc3ccccc3nc21,inconclusive: -33.7%
10,C=CCN1C(=O)NC(=O)/C(=C/c2ccc(OC)c(CSc3ccccn3)c2)C1=O,inconclusive: -36.2%
11,C=CCc1cc(C=C2C(=O)NC(=O)NC2=O)cc(OC)c1OCc1ccc(C(=O)O)cc1,inconclusive: -47.4%
12,CCOC(=O)C1=Nc2ccccc2/C1=C\c1c(O)n(C)c(=O)n(C)c1=O,inconclusive: -31.1%
13,O=C1NC(=O)N(Cc2ccco2)C(=O)/C1=C/c1ccc(-c2cccc([N+](=O)[O-])c2)o1,inconclusive: -45.9%
14,CC(C)OCCCNC(=O)c1c(N)n(CC2CCCO2)c2nc3ccccc3nc12 (stereo not given),inconclusive: -47.5%
15,O=C1NC(=O)C(=Cc2ccccc2Oc2ccc(F)cc2)C(=O)N1,inconclusive: -30.4%
16,CCOc1cc(C=C2C(=O)NC(=O)NC2=O)ccc1OS(=O)(=O)c1ccccc1,inconclusive: -36.6%
17,CCCCn1c(NC(=O)c2ccco2)c(C(=O)OCC)c2nc3ccccc3nc21,inconclusive: -31.7%
18,O=C1NC(=O)C(=Cc2csc3ccccc23)C(=O)N1,inconclusive: -41.8%
19,Cc1[nH]n(-c2ccccc2)c(=O)c1C(c1ccc([N+](=O)[O-])cc1)c1c(C)[nH]n(-c2ccccc2)c1=O,inconclusive: -37.7%
20,NC(=O)CI,active: -54.3%
21,COCCCn1c(N)c(C(=O)NCCC(C)C)c2nc3ccccc3nc21,inconclusive: -46.9%
22,CNc1ccc2nc3ccccc3[n+](C)c2c1,inconclusive: -44.8%
23,CN1C(=O)C(Cc2ccsc2)C(=O)N(C)C1=O,inconclusive: -43.2%
24,Cc1cc(O)c2c(c1)C(=O)[C@@]13C(=C2O)C(=O)[C@H]2C(O)[C@@H]1[C@H]1C(O)[C@@H]3C(=O)C3=C(O)c4c(O)cc(C)cc4C(=O)[C@@]312 (stereo not given in full),active: -75.8%

row,SMILES,"activity change, negative = inhibition"
1,COc1cc2c(cc1OC)-c1c3c(cc4c1[C@@H](C2)N(C)CC4)OCO3,inactive: -19.6%
2,COc1ccc(CN2C(=O)NC(=O)/C(=C\c3cc(OC)c(OC)c(OC)c3)C2=O)cc1,inconclusive: -30.4%
3,CC1CCCC(C2(O)C(=O)Nc3ccccc32)C1=O (stereo not given),inactive: -2.78%
4,O=C1NC(=O)N(c2ccccc2)C(=O)/C1=C/c1coc2ccc(O)cc2c1=O,inconclusive: -34.7%
5,O=C1NC(=S)N(c2ccc(F)cc2)C(=O)/C1=C\c1ccoc1,inconclusive: -34.7%
6,C=C(C=O)CC1CC(O)[C@]2(C)OC3CC4OC5C[C@]6(C)O[C@]7(C)CCC8OC9C[C@]%10(C)OC%11C(C)=CC(=O)OC%11CC%10OC9C[C@@H](C)C8OC7CC6O[C@]5(C)C/C=C\C4OC3CC2O1 (stereo not given in full),inactive: -9.31%
7,Cc1cccc(N2C(=O)NC(=O)/C(=C\C=C\c3ccco3)C2=O)c1,inconclusive: -31.8%
8,CCOC(=O)c1cc(C)sc1/N=C/C1C(=O)NC(=S)NC1=O,inconclusive: -34.1%
9,COc1ccc(CN2C(=O)CC(=O)NC2=O)cc1,inconclusive: -35.2%
10,COc1ccc(CC2c3cc(OC)c(OC)cc3CCN2C)cc1O (stereo not given),inactive: 0.153%
11,CN1CCN(c2ccc([N+](=O)[O-])c(N/N=C3\CN4CCC3CC4)c2)CC1,inactive: 0.732%
12,O=C1OC(c2ccc(O)c(S(=O)(=O)O)c2)(c2ccc(O)c(S(=O)(=O)O)c2)c2c(Br)c(Br)c(Br)c(Br)c21,inactive: -3.89%
13,C=C1C(=O)OC2CC(C)C3C=CC(=O)C3(C)C(O)C12 (stereo not given),inconclusive: -34.4%
14,CNc1cc(Cl)c2nonc2c1[N+](=O)[O-],inactive: -22.6%
15,CC[N+]12CCC(CC1)C(=C(c1ccccc1)c1ccccc1)C2,inconclusive: -31.3%
16,CCOc1cc(/C=C2\C(=O)NC(=O)N(CCc3ccc(F)cc3)C2=O)ccc1O,inconclusive: -30.2%
17,COC(=O)C1=C(c2c(C)noc2C)C[C@@H]2CC[C@H]1N2C(=O)NCCO,active: -52.7%
18,O=C1NC(=O)C(=Cc2ccc(N3CCOCC3)o2)C(=O)N1,inactive: -1.72%
19,CC(=O)c1ccc2c(c1)C1C(Cl)C(Sc3ccccc3[N+](=O)[O-])CC1C(c1ccccc1)N2 (stereo not given),inconclusive: -35.1%
20,COCCNC(=O)c1c(N)n(CCC(C)C)c2nc3ccccc3nc12,inconclusive: -33.5%
21,CCn1nc(-c2ccccc2)nc2c(=O)n(C)c(=O)nc1-2,active: -57.4%
22,CCN(CC)c1ccc(/C=C2/C(=O)NC(=O)N(Cc3ccco3)C2=O)cc1,inconclusive: -32.4%
23,COCCNC(=O)c1c(NC(=O)c2ccco2)n(Cc2ccccc2)c2nc3ccccc3nc12,inconclusive: -37.5%
24,CN(C)C(=O)Oc1ccc(OCc2nc3ccccc3[nH]2)cc1,inconclusive: -47.5%

row,SMILES,"activity change, negative = inhibition"
1,CCOc1cccc(OCC)c2c(C)[n+](CC3CCCO3)c(C)c1-2 (stereo not given),inconclusive: -40.3%
2,COC(=O)C(O)(c1c(C)[nH]n(-c2ccccc2)c1=O)C(F)(F)F (stereo not given),inconclusive: -44.8%
3,CCN1CCN(Cc2cc(Br)cc(Br)c2O)CC1,inactive: -5.42%
4,N#Cc1cn(C2OC(CO)C(O)C2O)c2ncnc(N)c12 (stereo not given),active: -51.2%
5,CC[C@H](C)/C=C(C)/C=C/C1=CC2=C(Cl)C(=O)[C@](C)(OC(C)=O)C(=O)C2=CO1,inconclusive: -41.7%
6,O=C1NC(=O)C(=Cc2ccsc2)C(=O)N1,inconclusive: -45.1%
7,CCCCCn1c(NC(=O)c2ccco2)c(C(=O)OCC)c2nc3ccccc3nc21,inconclusive: -42.5%
8,CCN(CC)C(=O)c1ccc(NC(=O)Nc2ccccc2F)cc1,inconclusive: -39.3%
9,CC(=O)c1c(O)c(C)c(O)c(Cc2c(O)c3c(c(C(=O)/C=C/c4ccccc4)c2O)OC(C)(C)C=C3)c1O,inconclusive: -33.4%
10,O=C(O)c1cc[c]([Hg][Cl])cc1,inconclusive: -37.5% and inconclusive: -31.5%
11,Cc1ccc2c(C)cccc2c1,inactive: 6.43%
12,COc1ccc(C)cc1NC(=O)N(Cc1ccc2c(c1)OCO2)C1CCN(Cc2ccccc2)CC1,inactive: -2.82%
13,O=C1NC(=O)N(Cc2ccco2)C(=O)/C1=C/c1cccn1CCOc1ccccc1Cl,inconclusive: -31%
14,Cc1cc(O)c2c(c1)C(=O)C13C(=C2O)C(=O)[C@H]2[C@@H](O)[C@@H]1[C@H]1[C@H](O)[C@@H]3C(=O)C3=C(O)c4c(O)cc(C)cc4C(=O)C312 (stereo not given in full),active: -75.3%
15,C=CCN1C(=O)NC(=O)/C(=C/c2c(CCN(C)C(=O)c3ccccc3)cc3c(c2OC)OCO3)C1=O,inconclusive: -30.6%
16,Cc1ccc(OCCn2cccc2/C=C2/C(=O)NC(=O)N(Cc3ccco3)C2=O)cc1,inconclusive: -42.4%
17,COC(=O)C1=C(c2ccccc2OCc2ccccc2)C[C@@H]2CC[C@H]1N2C(=O)NCc1ccc(N(C)C)cc1,inactive: -0.0273%
18,CCOc1cc2c(cc1OCC)-n1cccc1C(c1ccc(C(C)C)cc1)NC2 (stereo not given),inactive: -1.9%
19,CN(C)[C@@H]1C(=O)C(C(N)=O)=C(O)[C@@]2(O)C(=O)C3=C(O)c4c(O)cccc4[C@@](C)(O)[C@H]3[C@H](O)[C@@H]12,active: -62.9% and inconclusive: -31.8%
20,COc1cc(OC)c(OC)cc1/C=C1/C(=O)NC(=O)N(Cc2ccccc2)C1=O,active: -52.7%
21,O=C(O)Cn1cc(/C=C2\C(=O)NC(=O)N(Cc3ccco3)C2=O)c2ccccc21,inconclusive: -30.6%
22,Cc1ccc(/C=C2\C(=O)NC(=O)N(CCc3ccc(F)cc3)C2=O)o1,inconclusive: -32.2%
23,Cc1nonc1OCCNCCNc1ccc([N+](=O)[O-])c2cccnc12,inactive: 24.7%
24,N#Cc1c(Br)n(C2OC(CO)C(O)C2O)c2ncnc(N)c12 (stereo not given),inconclusive: -41.4%

row,SMILES,"activity change, negative = inhibition"
1,O=C1NC(=O)C(=Cc2coc3ccc(O)cc3c2=O)C(=O)N1,inconclusive: -34.9%
2,COc1ccc(/C=C2\C(=O)NC(=O)N(CCC3=CCCCC3)C2=O)c(OC)c1,inconclusive: -42.2%
3,COc1cc(C(c2c(C)[nH]n(-c3ccccc3)c2=O)c2c(C)[nH]n(-c3ccccc3)c2=O)cc(OC)c1OC,inconclusive: -37.7%
4,O=C1NC(=O)N(Cc2ccco2)C(=O)/C1=C\c1ccc(-c2ccc(F)cc2)o1,inconclusive: -46.3%
5,COc1cc(C=C2C(=O)NC(=O)NC2=O)ccc1O,inconclusive: -30.2%
6,O=C1NC(=O)N(c2cccc(Cl)c2)C(=O)/C1=C\c1ccc(Sc2nc3ccccc3[nH]2)o1,inconclusive: -37.3%
7,Clc1cccc(N2Cc3cc(-c4ccccc4)ccc3-n3nncc3C2)c1,inconclusive: -38.4%
8,O=c1[nH]c(=S)n(Cc2ccco2)c(O)c1C=NCc1cccs1,active: -56.6%
9,NNc1n[nH]c(=S)n1N,inconclusive: -33.1%
10,CN1C(=O)/C(=C/C=C/c2ccco2)C(=O)NC1=S,inactive: -15.6%
11,CCCCOc1ccc(CC2C(=O)N(C)C(=O)N(C)C2=O)cc1,inconclusive: -35.8%
12,Cc1cccc(N2C(=O)NC(=O)/C(=C\c3cc(C)n(-c4sc5c(c4C#N)CCCC5)c3C)C2=O)c1C,inconclusive: -37.5%
13,COc1cc(/C=C2\C(=O)NC(=O)N(CCc3ccc(F)cc3)C2=O)ccc1O,active: -53.4%
14,O=C1C=C(N2CC2)c2ccccc2C1=O,inconclusive: -44.5%
15,CCn1nc(-c2cccs2)nc2c(=O)n(C)c(=O)nc1-2,active: -60.7%
16,NS(=O)(=O)c1ccc(-c2ccc(C=C3C(=O)NC(=O)NC3=O)o2)cc1,inconclusive: -40.9%
17,CN1C(=O)/C(=C/c2cccn2-c2ccc3ccccc3c2)C(=O)NC1=S,active: -61.3%
18,O=C1NC(=O)N(Cc2ccco2)C(=O)/C1=C\c1cccn1CCOc1ccc(Cl)cc1,inconclusive: -34.7%
19,CC[n+]1c(-c2ccccc2)c2cc(N)ccc2c2ccc(N)cc21,inconclusive: -35.7%
20,COc1ccc(C=C2C(=O)N(C)C(=O)N(C)C2=O)cc1CSc1ccccn1,inconclusive: -31.3%
21,O=C1NC(=O)N(Cc2ccco2)C(=O)/C1=C/C=C/c1ccco1,inconclusive: -36.3%
22,O=C1NC(=O)C(=Cc2ccc(-c3ccc(F)cc3O)o2)C(=O)N1,inconclusive: -34%
23,Cc1[nH]c2ccc(OC(F)(F)F)cc2c1CCNCc1ccc(Cl)cc1,inactive: 3.6%
